Article PMC13161223, “Molecular anatomy of PLK1 master docking motifs” (Nature Communications, 2026)

What was measured:
[1] = biological target: T1, biotin-conjugated ^MBPCENP-U^58-114/pT78/pT98 (immobilised ligand of BLI) (human, UniProt Q71F23 58-114, phosphothreonine at 78; phosphothreonine at 98; biotin (Gly-Gly-Gly-Gly-Biotin conjugated to the C-terminal PLPETG peptide by sortase A)); test: BLI; biotin-conjugated phosphorylated ^MBPCENP-U^58-114 immobilised on streptavidin sensors, ^MBPPBD or ^6HisPLK1^FL as analyte; 25 °C, 20 mM HEPES pH 7.5, 2.5% glycerol, 300 mM NaCl, 0.1 mM TCEP, 0.3 g/L BSA, 0.05% Tween20; one site for pT78, two sites (KD1, KD2) for pT98 and pT78/pT98; conditions: both partners purified
T1 construct: source: E. coli BL21 (DE3), purified; phosphorylated in vitro with CDK1 and PLK1; biotin-labelled with sortase A; not shown: MBP, N-terminal, kept; PLPETG peptide conjugated with Gly-Gly-Gly-Gly-Biotin, C-terminal, kept
T1 sequence (looked up): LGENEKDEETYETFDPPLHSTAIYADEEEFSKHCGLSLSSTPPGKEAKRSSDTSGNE

[2] = biological target: T2, biotin-conjugated ^MBPCENP-U^58-114/pT98 (immobilised ligand of BLI) (human, UniProt Q71F23 58-114, phosphothreonine at 98; biotin (Gly-Gly-Gly-Gly-Biotin conjugated to the C-terminal PLPETG peptide by sortase A)); test: as above; conditions: both partners purified
T2 construct: source: E. coli BL21 (DE3), purified; phosphorylated in vitro with CDK1; biotin-labelled with sortase A; not shown: MBP, N-terminal, kept; PLPETG peptide conjugated with Gly-Gly-Gly-Gly-Biotin, C-terminal, kept
T2 sequence (looked up): T1 sequence (looked up)

B1: ^MBPPBD (6xHis-MBP-TEV-PLK1^[…]) (domain or fragment)
chain: not shown
notes: PLK1, human, […] (Polo-box domain construct); The plasmids paragraph speaks of expression in insect cells, the purification paragraph of E. coli BL21 (DE3); TEV site between MBP and PLK1; source: E. coli BL21 (DE3), purified (HisTALON, SEC); not shown: MBP, N-terminal, kept
B1 was tested, and the “KD1 (primary, higher-affinity site)” value [1] was 2.7 nM, the “KD2 (secondary, lower-affinity site)” value [1] was 1000 nM and the “koff of the site of KD1” value [1] was 0.00012 s⁻¹. For the same binder, the “koff of the site of KD2” value [1] was 0.018 s⁻¹, the “kon of the site of KD1” value [1] was 45000 M⁻¹ s⁻¹ and the “kon of the site of KD2” value [1] was 18000 M⁻¹ s⁻¹. For the same binder, the “KD1 (primary, higher-affinity site)” value [2] was 16 nM, the “KD2 (secondary, lower-affinity site)” value [2] was 4 µM and the “koff of the site of KD1” value [2] was 0.00071 s⁻¹. The “koff of the site of KD2” value [2] was 0.029 s⁻¹, the “kon of the site of KD1” value [2] was 45000 M⁻¹ s⁻¹ and the “kon of the site of KD2” value [2] was 7400 M⁻¹ s⁻¹.
